Measured values as given in patent US20250312444A1 (BEIJING TUO JIE BIOPHARMACEUTICAL, published 2025).

T1: monkey serum albumin (CySA) (monkey)
T1 chain: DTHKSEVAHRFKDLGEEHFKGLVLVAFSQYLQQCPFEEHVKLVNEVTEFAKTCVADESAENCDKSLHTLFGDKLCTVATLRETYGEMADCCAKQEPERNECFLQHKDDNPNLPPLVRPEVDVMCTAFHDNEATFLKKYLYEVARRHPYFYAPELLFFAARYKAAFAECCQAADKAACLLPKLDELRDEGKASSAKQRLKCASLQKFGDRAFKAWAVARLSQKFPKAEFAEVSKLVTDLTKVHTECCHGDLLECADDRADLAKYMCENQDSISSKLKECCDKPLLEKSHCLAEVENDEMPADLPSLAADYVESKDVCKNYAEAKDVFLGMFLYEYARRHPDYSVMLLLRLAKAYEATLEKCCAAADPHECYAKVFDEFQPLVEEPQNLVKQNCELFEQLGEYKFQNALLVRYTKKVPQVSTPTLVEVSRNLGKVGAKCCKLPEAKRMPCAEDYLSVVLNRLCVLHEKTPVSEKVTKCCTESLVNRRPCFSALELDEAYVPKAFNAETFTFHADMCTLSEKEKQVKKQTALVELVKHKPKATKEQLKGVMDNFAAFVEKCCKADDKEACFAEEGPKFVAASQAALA

B1: #9aHSA-IgG1Fc (Fc fusion)
heavy: DVQLVESGGGSVQAGGSLRLSCAAAEYTYLNSCLGWFRQAPGKEREGVATIYMVGGSTFYADSVKGRFTISRDNAKNTVYLMMNSLKPEDTAMYYCAAGSPARCLRRDPTTFNYWGQGTQVTVSSASGS[human IgG1 Fc left out]
notes: VHH, ASGS linker, human IgG1-Fc; expressed in HEK293; also called #9a anti-HSA antibody fused with human IgG1-Fc
B2: #7aHSA-IgG1Fc (Fc fusion)
heavy: HVQLVESGGGSVQAGGSLRVSCVASGNTYLTSCMGWFRQAPGKEREGVASIYTVGGSTFYTNSVKGRFTISRDNAKNTVYLQMNSLQPEDTAMYYCAAGSPARCRLRDPTTFDYWGQGTQVTVSSASGS[human IgG1 Fc left out]
notes: VHH, ASGS linker, human IgG1-Fc; expressed in HEK293; also called #7aHSA fused with human IgG1-Fc

Assays:
[1] = molecular target: human serum albumin (HSA) (human); test: ELISA, albumin coated, anti-human Fc detection
[2] = molecular target: T1, monkey serum albumin (CySA); test: ELISA, albumin coated, anti-human Fc detection
[3] = molecular target: mouse serum albumin (mSA) (mouse); test: ELISA, albumin coated, anti-human Fc detection
[4] = molecular target: human serum albumin (HSA) (human); test: SPR Biacore T200, antibody captured on protein A, albumin as analyte
[5] = molecular target: T1, monkey serum albumin (CySA); test: as above
[6] = molecular target: mouse serum albumin (mSA) (mouse); test: as above

Row | Binder | EC50 [1] | EC50 [2] | EC50 [3] | Kd [4] | koff [4] | kon [4] | Kd [5] | koff [5] | kon [5] | Kd [6] | koff [6] | kon [6]
1 | B1 | 0.046 µg/mL | 0.0386 µg/mL | 0.0412 µg/mL | 0.313 nM | 2.64e-05 s⁻¹ | 84300 M⁻¹ s⁻¹ | 0.493 nM | 4.4e-05 s⁻¹ | 89200 M⁻¹ s⁻¹ | 14 nM | 31 s⁻¹ | –
2 | B2 | 0.0455 µg/mL | 0.0426 µg/mL | 0.045 µg/mL | 1.76 nM | 7.55e-05 s⁻¹ | 42900 M⁻¹ s⁻¹ | 1.27 nM | 5.7e-05 s⁻¹ | 44900 M⁻¹ s⁻¹ | 7.44 nM | 0.000347 s⁻¹ | 46600 M⁻¹ s⁻¹
